According to the supplement of paper PMC8728848:
This is one part of the list.

Key:
Assay in all cases: glycan array binding signal (z-score within array); higher = stronger binding
Conditions in all cases: glycan notation: IUPAC condensed, linker removed
[1] = target: Fuc(a1-3)GlcNAc
Procedure, shortened: (§1)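 The binding signal is a Z-score computed within each array and averaged over linkers. Arrays of the same protein sequence at different concentrations or buffers were also averaged together. Data originate from 3228 arrays in the Consortium for Functional Glycomics database, kept only where the protein sequence was available.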

[2] = target: Fuc(a1-3)[Gal(b1-4)]Glc6S
Procedure, shortened: as §1

[3] = target: Fuc(a1-3)[Gal(b1-4)]GlcNAc
Procedure, shortened: as §1

[4] = target: Fuc(a1-3)[Gal(b1-4)]GlcNAc(b1-2)Man
Procedure, shortened: as §1

[5] = target: Fuc(a1-3)[Gal(b1-4)]GlcNAc(b1-2)Man(a1-3)[Fuc(a1-3)[Gal(b1-4)]GlcNAc(b1-2)Man(a1-6)]Man(b1-4)GlcNAc(b1-4)GlcNAc
Procedure, shortened: as §1

[6] = target: Fuc(a1-3)[Gal(b1-4)]GlcNAc(b1-2)Man(a1-3)[Fuc(a1-3)[Gal(b1-4)]GlcNAc(b1-2)Man(a1-6)]Man(b1-4)GlcNAc(b1-4)[Fuc(a1-6)]GlcNAc
Procedure, shortened: as §1

[7] = target: Fuc(a1-3)[Gal(b1-4)]GlcNAc(b1-3)Gal(b1-3)[Fuc(a1-4)]GlcNAc
Procedure, shortened: as §1

[8] = target: Fuc(a1-3)[Gal(b1-4)]GlcNAc(b1-3)Gal(b1-4)[Fuc(a1-3)]GlcNAc
Procedure, shortened: as §1

[9] = target: Fuc(a1-3)[Gal(b1-4)]GlcNAc(b1-3)Gal(b1-4)[Fuc(a1-3)]GlcNAc(b1-3)Gal(b1-4)[Fuc(a1-3)]GlcNAc
Procedure, shortened: as §1

[10] = target: Fuc(a1-3)[Gal(b1-4)]GlcNAc(b1-3)GalNAc
Procedure, shortened: as §1

[11] = target: Fuc(a1-3)[Gal(b1-4)]GlcNAc(b1-6)GalNAc
Procedure, shortened: as §1

[12] = target: Fuc(a1-3)[Gal(b1-4)]GlcNAc(b1-6)[Gal(b1-3)GlcNAc(b1-3)]Gal(b1-4)Glc
Procedure, shortened: as §1

[13] = target: Fuc(a1-3)[Gal(b1-4)]GlcNAc6S
Procedure, shortened: as §1

[14] = target: Fuc(a1-3)[Gal3S(b1-4)]Glc
Procedure, shortened: as §1

[15] = target: Fuc(a1-3)[Gal3S(b1-4)]GlcNAc
Procedure, shortened: as §1

[16] = target: Fuc(a1-3)[Gal3S(b1-4)]GlcNAc6S
Procedure, shortened: as §1

[17] = target: Fuc(a1-3)[GalNAc(b1-4)]GlcNAc
Procedure, shortened: as §1

[18] = target: Fuc(a1-3)[GalNAc(b1-4)]GlcNAc6S
Procedure, shortened: as §1

[19] = target: Fuc(a1-4)GlcNAc
Procedure, shortened: as §1

[20] = target: Fuc(b1-3)GlcNAc
Procedure, shortened: as §1

[21] = target: Gal(a1-2)Gal
Procedure, shortened: as §1

[22] = target: Gal(a1-3)Gal
Procedure, shortened: as §1

[23] = target: Gal(a1-3)Gal(b1-3)GlcNAc
Procedure, shortened: as §1

[24] = target: Gal(a1-3)Gal(b1-3)GlcNAc(b1-2)Man
Procedure, shortened: as §1

[25] = target: Gal(a1-3)Gal(b1-3)GlcNAc(b1-2)Man(a1-3)[Gal(a1-3)Gal(b1-3)GlcNAc(b1-2)Man(a1-6)]Man(b1-4)GlcNAc(b1-4)GlcNAc
Procedure, shortened: as §1

[26] = target: Gal(a1-3)Gal(b1-3)GlcNAc(b1-3)GalNAc
Procedure, shortened: as §1

[27] = target: Gal(a1-3)Gal(b1-3)GlcNAc(b1-6)GalNAc
Procedure, shortened: as §1

[28] = target: Gal(a1-3)Gal(b1-3)[Fuc(a1-4)]GlcNAc(b1-2)Man(a1-3)[Gal(a1-3)Gal(b1-3)[Fuc(a1-4)]GlcNAc(b1-2)Man(a1-6)]Man(b1-4)GlcNAc(b1-4)GlcNAc
Procedure, shortened: as §1

[29] = target: Gal(a1-3)Gal(b1-4)Glc
Procedure, shortened: as §1

[30] = target: Gal(a1-3)Gal(b1-4)GlcNAc
Procedure, shortened: as §1

[31] = target: Gal(a1-3)Gal(b1-4)GlcNAc(b1-2)Man
Procedure, shortened: as §1

[32] = target: Gal(a1-3)Gal(b1-4)GlcNAc(b1-2)Man(a1-3)[Gal(a1-3)Gal(b1-4)GlcNAc(b1-2)Man(a1-6)]Man(b1-4)GlcNAc(b1-4)GlcNAc
Procedure, shortened: as §1

[33] = target: Gal(a1-3)Gal(b1-4)GlcNAc(b1-3)GalNAc
Procedure, shortened: as §1

[34] = target: Gal(a1-3)Gal(b1-4)GlcNAc(b1-6)GalNAc
Procedure, shortened: as §1

[35] = target: Gal(a1-3)Gal(b1-4)[Fuc(a1-3)]GlcNAc
Procedure, shortened: as §1

[36] = target: Gal(a1-3)Gal(b1-4)[Fuc(a1-3)]GlcNAc(b1-2)Man(a1-3)[Gal(a1-3)Gal(b1-4)[Fuc(a1-3)]GlcNAc(b1-2)Man(a1-6)]Man(b1-4)GlcNAc(b1-4)GlcNAc
Procedure, shortened: as §1

[37] = target: Gal(a1-3)GalNAc
Procedure, shortened: as §1

B1: Cohesin-hDC-ASGPR (Homo sapiens) (protein)
chain: LDDLDAVRIKVDTVNAKPGDTVRIPVRFSGIPSKGIANCDFVYSYDPNVLEIIEIEPGDIIVDPNPDKSFDTAVYPDRKIIVFLFAEDSGTGAYAITKDGVFATIVAKVKEGAPNGLSVIKFVEVGGFANNDLVEQKTQFFDGGANVGDTTEPATPTTPVTTPTTTDDLDAASQNSKFQRDLVTLRTDFSNFTSNTVAEIQALTSQGSSLEETIASLKAEVEGFKQERQAGVSELQEHTTQKAHLGHCPHCPSVCVPVHSEMLLRVQQLVQDLKKLTCQVATLNNNASTEGTCCPVNWVEHQDSCYWFSHSGMSWAEAEKYCQLKNAHLVVINSREEQNFVQKYLGSAYTWMGLSDPEGAWKWVDGTDYATGFQNWKPGQPDDWQGHGLGGGEDCAHFHPDGRWNDDVCQRPYHWVCEAGLGQTSQESHHHHHH
**Q.** B1 was tested. Which “glycan array binding signal (z-score)” value [1] did it give?
**A.** The value was -0.367.

**Q.** What about the “glycan array binding signal (z-score)” value [2] of the same binder?
**A.** Its value is -0.425.

**Q.** And the “glycan array binding signal (z-score)” value [3]?
**A.** The value was -0.143.

**Q.** And the “glycan array binding signal (z-score)” value [4]?
**A.** Its value is -0.444.

**Q.** And the “glycan array binding signal (z-score)” value [5]?
**A.** The value was -0.454.

**Q.** And the “glycan array binding signal (z-score)” value [6]?
**A.** The value was -0.501.

**Q.** And the “glycan array binding signal (z-score)” value [7]?
**A.** The value was -0.491.

**Q.** And the “glycan array binding signal (z-score)” value [8]?
**A.** Its value is -0.349.

**Q.** What about the “glycan array binding signal (z-score)” value [9] of the same binder?
**A.** The value was -0.476.

**Q.** And the “glycan array binding signal (z-score)” value [10]?
**A.** The value was -0.391.

**Q.** And the “glycan array binding signal (z-score)” value [11]?
**A.** Its value is 2.41.

**Q.** What about the “glycan array binding signal (z-score)” value [12] of the same binder?
**A.** Its value is -0.495.

**Q.** And the “glycan array binding signal (z-score)” value [13]?
**A.** The value was -0.524.

**Q.** And the “glycan array binding signal (z-score)” value [14]?
**A.** Its value is -0.33.

**Q.** And the “glycan array binding signal (z-score)” value [15]?
**A.** The value was -0.168.

**Q.** What about the “glycan array binding signal (z-score)” value [16] of the same binder?
**A.** The value was -0.422.

**Q.** What about the “glycan array binding signal (z-score)” value [17] of the same binder?
**A.** The value was 2.62.

**Q.** And the “glycan array binding signal (z-score)” value [18]?
**A.** Its value is 2.62.

**Q.** What about the “glycan array binding signal (z-score)” value [19] of the same binder?
**A.** Its value is -0.313.

**Q.** And the “glycan array binding signal (z-score)” value [20]?
**A.** Its value is -0.392.

**Q.** What about the “glycan array binding signal (z-score)” value [21] of the same binder?
**A.** Its value is -0.204.

**Q.** And the “glycan array binding signal (z-score)” value [22]?
**A.** Its value is -0.502.

**Q.** And the “glycan array binding signal (z-score)” value [23]?
**A.** Its value is 1.05.

**Q.** And the “glycan array binding signal (z-score)” value [24]?
**A.** The value was -0.52.

**Q.** And the “glycan array binding signal (z-score)” value [25]?
**A.** The value was -0.442.

**Q.** And the “glycan array binding signal (z-score)” value [26]?
**A.** The value was -0.376.

**Q.** What about the “glycan array binding signal (z-score)” value [27] of the same binder?
**A.** Its value is 2.9.

**Q.** And the “glycan array binding signal (z-score)” value [28]?
**A.** The value was -0.322.

**Q.** And the “glycan array binding signal (z-score)” value [29]?
**A.** The value was -0.483.

**Q.** And the “glycan array binding signal (z-score)” value [30]?
**A.** Its value is -0.492.

**Q.** What about the “glycan array binding signal (z-score)” value [31] of the same binder?
**A.** Its value is -0.386.

**Q.** And the “glycan array binding signal (z-score)” value [32]?
**A.** Its value is -0.411.

**Q.** And the “glycan array binding signal (z-score)” value [33]?
**A.** The value was -0.475.

**Q.** What about the “glycan array binding signal (z-score)” value [34] of the same binder?
**A.** Its value is 2.57.

**Q.** And the “glycan array binding signal (z-score)” value [35]?
**A.** Its value is -0.416.

**Q.** And the “glycan array binding signal (z-score)” value [36]?
**A.** The value was -0.296.

**Q.** And the “glycan array binding signal (z-score)” value [37]?
**A.** The value was -0.07.
